# Experimental data reported in the antibiotic and cytotoxicity screens of Wong et al. (2023).
# This is one part of the list.
# What was measured:
# HSkMC = human skeletal muscle cells; test: cytotoxicity call (relative viability < 0.9); settings: 10 µM
# S. aureus RN4220 = test: growth inhibition call (relative growth <= 0.2); settings: 50 µM
Structure (SMILES),cytotoxicity call (HSkMC),growth inhibition call (S. aureus RN4220)
O=C(C[C@@H]1CC[C@H]2[C@@H](COC[C@@H](O)CN2S(=O)(=O)c2ccc(F)cc2)O1)NCc1ccc(Cl)c(Cl)c1,inactive,inactive
O=C(O)c1ccc(N[C@@H]2O[C@H](CO)[C@@H](O)[C@H](O)[C@H]2O)cc1,inactive,inactive
C[C@@H]1CN([C@@H](C)CO)C(=O)c2cc(NS(=O)(=O)c3ccc(F)cc3)ccc2O[C@@H](C)CCCCO[C@H]1CN(C)S(=O)(=O)c1ccc(Cl)cc1,inactive,inactive
C[C@@H]1CCCCO[C@@H](CN(C)C(=O)Nc2ccc(F)cc2)[C@H](C)CN([C@H](C)CO)C(=O)c2cc(NC(=O)Nc3ccccc3)ccc2O1,inactive,inactive
COCC(=O)Nc1ccc2c(c1)OC[C@@H](C)N(C(=O)CN1CCOCC1)C[C@@H](C)[C@H](OC)CN(C)C2=O,inactive,inactive
COC[C@H]1C[C@@H](c2nc(-c3ccc4c(c3)COc3cc5c(ccc6[nH]c([C@@H]7CC[C@H](C)N7C(=O)[C@@H](NC(=O)OC)C(C)C)nc65)cc3-4)c[nH]2)N(C(=O)[C@H](NC(=O)OC)c2ccccc2)C1,inactive,inactive
Cc1ccc(S(=O)(=O)N(C)C[C@H]2Oc3cc(Br)ccc3S(=O)(=O)N([C@@H](C)CO)C[C@H]2C)cc1,inactive,inactive
CCc1nc2ccc(C(=O)N3CCN(C(=O)c4ccco4)CC3)cn2c1N(C)C(=O)COc1ccccc1,inactive,inactive
CN(C)CCCNC(=O)C[C@@H]1C=C[C@H](NS(=O)(=O)c2ccccc2)[C@@H](CO)O1,inactive,inactive
Cc1noc(C)c1NC(=O)Nc1cccc2c1O[C@@H](CN(C)Cc1ccc(Cl)c(Cl)c1)[C@@H](C)CN([C@H](C)CO)C2=O,inactive,inactive
C[C@H]1CCCCO[C@@H](CN(C)C(=O)Nc2ccc3c(c2)OCO3)[C@@H](C)CN([C@@H](C)CO)C(=O)c2cc(NC(=O)Nc3ccccc3)ccc2O1,inactive,inactive
CC[C@@](C)(Nc1n[nH]c(=O)[nH]c1=O)C(=O)O,inactive,inactive
C[C@@H]1CN([C@@H](C)CO)S(=O)(=O)c2ccc(-c3ccc(C(=O)N(C)C)cc3)cc2O[C@H]1CN(C)C(=O)C1CCOCC1,inactive,inactive
COc1ccc(CNC(=O)C[C@H]2C[C@@H]3c4cc(NS(=O)(=O)c5ccc(F)cc5)ccc4O[C@@H]3[C@H](CO)O2)cc1,inactive,inactive
Cc1ccc(S(=O)(=O)Nc2ccc3c(c2)C(=O)N([C@H](C)CO)C[C@H](C)[C@@H](CN(C)C(=O)Nc2ccc4c(c2)OCO4)OCCCC[C@@H](C)O3)cc1,inactive,inactive
C[C@@H]1CN([C@@H](C)CO)C(=O)Cc2cc(NS(=O)(=O)c3ccc(Cl)cc3)ccc2O[C@H]1CN(C)Cc1ccc(Cl)c(Cl)c1,active,inactive
C[C@H]1CN([C@@H](C)CO)C(=O)c2c(c3ccccc3n2C)-c2ccccc2CO[C@@H]1CN(C)Cc1ccc(Cl)c(Cl)c1,inactive,inactive
C=CC1=C(C)C2=NC/1=C\C1=NC(=C\C3=NC(=C\C4=NC(=C\2)/C(C)=C4CCC(=O)O)/C(CCC(=O)O)=C3C)/C(C=C)=C1C,inactive,inactive
C[C@H]1CN([C@@H](C)CO)C(=O)c2cccc(NC(=O)C3CCCCC3)c2O[C@H]1CN(C)Cc1ccc(-c2ccccc2)cc1,inactive,inactive
O=[N+]([O-])c1ccc(NCCNCCO)cc1,inactive,inactive
CCCCC(=O)C1CCCC=C1C(=O)O (stereo unspecified),inactive,inactive
COc1ccc(S(=O)(=O)Nc2ccc3c(c2)C(=O)N([C@H](C)CO)C[C@@H](C)[C@@H](CN(C)Cc2ccc(Cl)c(Cl)c2)O3)cc1,inactive,inactive

Structure (SMILES),cytotoxicity call (HSkMC),growth inhibition call (S. aureus RN4220)
Nc1nc(=O)c2ncn(COC(CO)CO)c2[nH]1,inactive,inactive
C[C@H](CO)N1C[C@H](C)[C@@H](CN(C)C(=O)Nc2ccc(N3CCN(C)CC3)cc2)OCc2cnnn2CCCC1=O,inactive,inactive
O=C(NO)c1cccc(C(=O)N/N=C/c2cc(I)cc(I)c2O)c1,inactive,inactive
COc1ccc(CN(C)C[C@H]2Oc3ccc(NC(=O)Nc4ccc(C(F)(F)F)cc4)cc3C(=O)N([C@H](C)CO)C[C@@H]2C)cc1,inactive,inactive
CCOc1cc(OCC)cc(C(=O)N[C@@H](Cc2ccc(-n3cc(CCC(=O)NO)nn3)cc2)C(=O)OC)c1,inactive,inactive
C[C@H]1CCCCO[C@H](CN(C)C(=O)c2ccncc2)[C@@H](C)CN([C@@H](C)CO)C(=O)c2cc(NS(=O)(=O)c3ccc(Cl)cc3)ccc2O1,inactive,inactive
Cc1cc(C(=O)Nc2cccc3c2O[C@@H](CN(C)Cc2ccc4c(c2)OCO4)[C@@H](C)CN([C@@H](C)CO)C3=O)n(C)n1,inactive,inactive
Cc1noc(C)c1NC(=O)Nc1ccc2c(c1)C(=O)N([C@@H](C)CO)C[C@H](C)[C@@H](CN(C)C(=O)NC(C)C)O2,inactive,inactive
O=C(CN1CCOCC1)NCC[C@H]1CC[C@@H](NC(=O)c2ccc3c(c2)OCO3)[C@@H](CO)O1,inactive,inactive
COc1cccc(-c2cn(CC[C@@H]3CC[C@@H](NS(=O)(=O)c4ccccc4Cl)[C@H](CO)O3)nn2)c1,inactive,inactive
Cc1noc(C)c1NC(=O)N(C)C[C@@H]1Oc2ccc(NC(=O)Nc3ccc(C(F)(F)F)cc3)cc2CC(=O)N([C@H](C)CO)C[C@@H]1C,inactive,inactive
C[C@H](CO)N1C[C@H](C)[C@H](CN(C)S(=O)(=O)c2ccc(Cl)cc2)OCCCC[C@H](C)Oc2ccc(NS(=O)(=O)c3cccs3)cc2C1=O,inactive,inactive
COc1ccc(NC(=O)N(C)C[C@H]2OCCCC[C@H](C)Oc3ccc(NS(=O)(=O)c4c(C)noc4C)cc3C(=O)N([C@@H](C)CO)C[C@@H]2C)cc1,inactive,inactive
C[C@@H]1CN([C@@H](C)CO)C(=O)c2cccc(NS(=O)(=O)c3ccccc3)c2O[C@H]1CN(C)Cc1ccc(-c2ccccc2)cc1,inactive,inactive
COC(=O)CCC(C)C1CCC2C3C(O)CC4CC(O)CCC4(C)C3CC(O)C12C (stereo unspecified),inactive,inactive
O=C(c1ccccc1O)N1CCOCC1,inactive,inactive
Cc1noc(C)c1S(=O)(=O)Nc1ccc2c(c1)CC(=O)N([C@@H](C)CO)C[C@H](C)[C@H](CN(C)C(=O)NC(C)C)O2,inactive,inactive
COc1ccc(C#Cc2ccc3c(c2)O[C@H](CN(C)S(=O)(=O)c2ccccc2F)[C@@H](C)CN([C@@H](C)CO)S3(=O)=O)cc1,inactive,inactive
Cc1noc(C)c1S(=O)(=O)Nc1ccc2c(c1)C(=O)N([C@@H](C)CO)C[C@H](C)[C@@H](CN(C)Cc1ccc(Cl)c(Cl)c1)OCCCC[C@H](C)O2,inactive,inactive
C[C@@H]1CCCCO[C@@H](CN(C)C(=O)Nc2ccccc2)[C@@H](C)CN([C@H](C)CO)C(=O)c2cc(NC(=O)Nc3cccc4ccccc34)ccc2O1,inactive,inactive
C[C@@H]1CN([C@H](C)CO)C(=O)c2cccc(NC(=O)c3nc4ccccc4s3)c2O[C@@H]1CN(C)S(=O)(=O)c1cn(C)cn1,inactive,inactive
